By IC50 is meant the dose at which the fit gives 50% viability; a limit (>, <) means that the fit lies beyond the doses tested. The AUC spans the tested range (256-fold, ending at the top dose) of the same fit; the more sensitive the line, the further below 1. An inferred top dose comes from the curve model; the source does not state it.
Compound: O=C1NC(=O)/C(=C\c2ccc3nccnc3c2)S1 [AS605240]
Experiment: Viability of human cancer cell lines after 72 h of drug (GDSC screen)
Conditions: top dose inferred
Experimental: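 Human cancer cell lines in 384-well plates, medium with 10% serum, drug for 72 h over a 256-fold dose range (nine 2-fold or five 4-fold steps up to the top dose). Adherent lines were fixed and stained with the nucleic acid dye Syto60, suspension lines read with resazurin; signal relative to control wells, capped at 0 and 100%. One two-parameter sigmoid per drug and line, fitted in a mixed model over all curves with the slope shared within a line.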

Cell Line | AUC | IC50 [µM]
HCC1428 (breast, adherent, top dose 20 µM) | 0.95 | > 20
HCC1500 (breast, adherent, top dose 10.24 µM) | 0.939 | > 10.2
HCC1569 (breast, adherent, top dose 20 µM) | 0.876 | > 20
HCC1599 (breast, suspension, top dose 20 µM) | 0.705 | 5.2
HCC1806 (breast, adherent, top dose 20 µM) | 0.934 | > 20
HCC1937 (breast, adherent, top dose 20 µM) | 0.894 | > 20
HCC1954 (breast, adherent, top dose 20 µM) | 0.643 | 3.33
HCC2157 (breast, suspension, top dose 20 µM) | 0.969 | > 20
HCC2218 (breast, suspension, top dose 20 µM) | 0.793 | 11.8
HCC2998 (large intestine, adherent, top dose 20 µM) | 0.987 | > 20
HCC-15 (lung squamous cell carcinoma, adherent, top dose 20 µM) | 0.806 | 13.7
HCC-33 (small cell lung carcinoma, adherent, top dose 20 µM) | 0.93 | > 20
HCC-44 (lung adenocarcinoma, adherent, top dose 20 µM) | 0.845 | 14
HCC-56 (large intestine, adherent, top dose 20 µM) | 0.572 | 1.98
HCC-78 (lung adenocarcinoma, adherent, top dose 20 µM) | 0.902 | > 20
HCC-827 (lung adenocarcinoma, adherent, top dose 20 µM) | 0.925 | > 20
HCE-4 (oesophagus, adherent, top dose 20 µM) | 0.97 | > 20

Cell Line | AUC | IC50 [µM]
HCT-15 (large intestine, adherent, top dose 20 µM) | 0.808 | 11.1
HCT-116 (large intestine, adherent, top dose 20 µM) | 0.66 | 3.39
HD-MY-Z (Hodgkin lymphoma, adherent, top dose 20 µM) | 0.881 | > 20
HDLM-2 (Hodgkin lymphoma, suspension, top dose 20 µM) | 0.886 | > 20
HDQ-P1 (breast, adherent, top dose 20 µM) | 0.876 | > 20
HEC-1 (endometrium, adherent, top dose 20 µM) | 0.949 | > 20
HEL (acute myeloid leukaemia, semi-adherent, top dose 20 µM) | 0.883 | 15.2
HGC-27 (stomach, adherent, top dose 20 µM) | 0.916 | > 20
HH (T-cell leukaemia, suspension, top dose 20 µM) | 0.775 | 10.7
HL-60 (acute myeloid leukaemia, suspension, top dose 20 µM) | 0.73 | 5.2
HLE (liver, adherent, top dose 20 µM) | 0.989 | > 20
HMV-II (melanoma, adherent, top dose 20 µM) | 0.943 | > 20
HN (head and neck, adherent, top dose 20 µM) | 0.912 | > 20
HO-1-N-1 (head and neck, adherent, top dose 20 µM) | 0.965 | > 20
HO-1-u-1 (head and neck, adherent, top dose 20 µM) | 0.987 | > 20
HOP-62 (lung adenocarcinoma, adherent, top dose 20 µM) | 0.982 | > 20
